The values that follow come from patent US20220267438A1 (Janssen / Centocor, published 2022).

Experiment [1] concerns the target T1, human BCMA (B cell maturation antigen, TNFRSF17) on cells (human, UniProt Q02223 1-184).
T1 construct: whole, on cells; Target on H929 or MM.1R GPRC5D knockout cells, K562 cells expressing human BCMA, HEK293 cells of the cell microarray, and BCMA-only lymphoma lines; also called CD269; surface BCMA
T1 sequence (looked up): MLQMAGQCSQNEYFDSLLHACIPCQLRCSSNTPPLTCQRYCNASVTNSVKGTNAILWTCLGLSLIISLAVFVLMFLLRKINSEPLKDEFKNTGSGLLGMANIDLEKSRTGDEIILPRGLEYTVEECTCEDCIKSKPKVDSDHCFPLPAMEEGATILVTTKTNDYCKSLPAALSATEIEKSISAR
Kind of experiment: flow cytometry, H929-GPRC5D-KO cells (BCMA arm), 1 h 37C; Run 1. On the technique in general: In flow cytometry, cells or beads pass a laser one at a time.

Experiment [2] has as its target T2, bt-BCMA (biotinylated BCMA, Octet) (UniProt Q02223 1-54, limits assumed, biotinylated (site not given)).
T2 construct: Also used for the row 'BCMA' of the Octet serum interference test of BGCB463, where the reagent is not described; also called BCMA (Octet serum interference)
T2 sequence (looked up): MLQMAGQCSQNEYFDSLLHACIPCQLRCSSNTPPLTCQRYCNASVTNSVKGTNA
The experiment can be described thus: Octet, association rate to bt-BCMA in buffer against 50% human serum. (In general: Biolayer interferometry detects binding as a change in optical thickness at a sensor tip.)

Experiment [3] concerns the target T3, human GPRC5D (G-protein coupled receptor family C group 5 member D) on cells (human, UniProt Q9NZD1 1-345).
T3 construct: Target on H929 or MM.1R BCMA knockout cells, K562 cells expressing human GPRC5D and HEK293 cells of the cell microarray
T3 sequence (Q9NZD1 whole entry): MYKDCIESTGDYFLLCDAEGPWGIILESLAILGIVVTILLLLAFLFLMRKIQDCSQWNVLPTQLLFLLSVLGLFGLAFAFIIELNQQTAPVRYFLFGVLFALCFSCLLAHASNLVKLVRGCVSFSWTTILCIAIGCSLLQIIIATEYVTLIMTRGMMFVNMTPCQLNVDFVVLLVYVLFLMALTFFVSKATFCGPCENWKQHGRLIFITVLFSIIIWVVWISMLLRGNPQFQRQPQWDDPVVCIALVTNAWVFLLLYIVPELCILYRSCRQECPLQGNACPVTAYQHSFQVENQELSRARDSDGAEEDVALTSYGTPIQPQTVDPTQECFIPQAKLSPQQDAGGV
Kind of experiment: flow cytometry, H929 BCMA KO cells, 1 h 37C; average of runs. The protocol:
First, FACS-based binding for GPRC5D and BCMA binding arms of the trispecific molecule was determined by measuring the effective concentration (EC) range from a dose-response curve using a 4-parameter fit at 37° C. for 1 hr. This was assessed using an H929 suite of cells (WT, GPRC5D-KO, BCMA-KO, and GPRC5D/BCMA KO), and a similar MM.1R suite. Cell based EC₅₀ is approximately 13 nM for WT H929 (FIGS. 2A-2D, Table 7) and 2.4 nM for WT MM.1R (FIGS. 3A-3D, Table 8). A clear avidity affect is observed as EC₅₀ and Bmax are both reduced in GPRC5D-KO and BCMA-KO lines which test monovalent binding of target binding arms (Table 7). Next, cell-based EC₅₀ was determined for the CD3-binding Fab arm using purified Pan T cells from three random donors. […] Next, dose responsive binding was assessed at 4° C. to remove any potential biological effects. As shown in FIGS. 5A-5C, binding is stronger (50-100 nM) at 4° C., compared to 37° C., which may indicate internalization. Additionally, two expression lots of BGCB463 (BGCB463.003 from transient transfection and BGCB463.004 from a stable transfection pool), were directly compared with binding to H929, MM.1R, and Pan T cells and no differences were noted (FIGS. 6A-6C).

In general, EC50 refers to the concentration at which the effect is half-maximal. A low value points to an effect from little substance.

B1: BGCB491 (other)
heavy: QVQLQQSGPRLVRPSQTLSLTCAISGDSVFNNNAAWSWIRQSPSRGLEWLGRTYYRSKWLYDYAVSVKSRITVNPDTSRNQFTLQLNSVTPEDTALYYCARGYSSSFDYWGQGTLVTVSSASTKGPSVFPLAPSSKSTSGGTAALGCLVKDYFPEPVTVSWNSGALTSGVHTFPAVLQSSGLYSLSSVVTVPSSSLGTQTYICNVNHKPSNTKVDKKVEPKSCDKTHTCPPCPAPEAAGGPSVFLFPPKPKDTLMISRTPEVTCVVVSVSHEDPEVKFNWYVDGVEVHNAKTKPREEQYNSTYRVVSVLTVLHQDWLNGKEYKCKVSNKALPAPIEKTISKAKGQPREPQVYTLPPSREEMTKNQVSLSCAVKGFYPSDIAVEWESNGQPENNYKTTPPVLDSDGSFFLVSKLTVDKSRWQQGNVFSCSVMHEALHNRFTQKSLSLSPGKGGGGSGGGGSGGGGSGGGGS[letters of about 100 residues not shown]QFPHTFGQGTKLEIKGGSEGKSSGSGSESKSTGGSQVTLKESGPVLVKPTETLTLTCTVSGFSLTNIRMSVSWIRQPPGKALEWLAHIFSNDEKSYSTSLKSRLTISRDTSKSQVVLTLTNVDPVDTATYYCARMRLPYGMDVWGQGTTVTVSS
light: QSALTQPASVSGSPGQSITISCTGTSSNIGTYKFVSWYQQHPDKAPKVLLYEVSKRPSGVSSRFSGSKSGNTASLTISGLQAEDQADYHCVSYAGSGTLLFGGGTKLTVLGQPKAAPSVTLFPPSSEELQANKATLVCLISDFYPGAVTVAWKADSSPVKAGVETTTPSKQSNNKYAASSYLSLTPEQWKSHRSYSCQVTHEGSTVEKTVAPTECS
chain: EIVLTQSPGTLSLSPGERATLSCRASQSISSSFLTWYQQKPGQAPRLLIYGASSRATGIPDRFSGGGSGTDFTLTISRLEPEDFAVYYCQHYGSSPMYTFGQGTKLEIKGGSEGKSSGSGSESKSTGGS[letters of about 100 residues not shown]DEGYSSGHYYGMDVWGQGTTVTVSSEPKSSDKTHTCPPCPAPEAAGGPSVFLFPPKPKDTLMISRTPEVTCVVVSVSHEDPEVKFNWYVDGVEVHNAKTKPREEQYNSTYRVVSVLTVLHQDWLNGKEYKCKVSNKALPAPIEKTISKAKGQPREPQVYTLPPSREEMTKNQVSLWCLVKGFYPSDIAVEWESNGQPENNYKTTPPVLDSDGSFFLYSKLTVDKSRWQQGNVFSCSVMHEALHNHYTQKSLSLSPGK
notes: Trispecific IgG1 antibody (L234A, L235A, D265S); Heavy chain 1 = anti-CD3 (CD3B376) Fab heavy chain, hole and RF mutations, with C-terminal anti-GPRC5D scFv (GC5B680); Heavy chain 2 = anti-BCMA scFv (BCMB519) - Fc knob; also called JNJ-79635322; BCMA×GPRC5D×CD3 trispecific mAb
Consider B1, for which the EC50 in experiment [1] is 210 nM. In experiment [2], this molecule came in with a ka buffer/ka serum of less than 2.

B2: BGCB463 (other)
heavy: QVQLQQSGPRLVRPSQTLSLTCAISGDSVFNNNAAWSWIRQSPSRGLEWLGRTYYRSKWLYDYAVSVKSRITVNPDTSRNQFTLQLNSVTPEDTALYYCARGYSSSFDYWGQGTLVTVSSASTKGPSVFPLAPSSKSTSGGTAALGCLVKDYFPEPVTVSWNSGALTSGVHTFPAVLQSSGLYSLSSVVTVPSSSLGTQTYICNVNHKPSNTKVDKKVEPKSCDKTHTCPPCPAPEAAGGPSVFLFPPKPKDTLMISRTPEVTCVVVSVSHEDPEVKFNWYVDGVEVHNAKTKPREEQYNSTYRVVSVLTVLHQDWLNGKEYKCKVSNKALPAPIEKTISKAKGQPREPQVYTLPPSREEMTKNQVSLSCAVKGFYPSDIAVEWESNGQPENNYKTTPPVLDSDGSFFLVSKLTVDKSRWQQGNVFSCSVMHEALHNRFTQKSLSLSPGK
light: B1 light
chain: [letters of about 100 residues not shown]QFPHTFGQGTKLEIKGGSEGKSSGSGSESKSTGGSQVTLKESGPVLVKPTETLTLTCTVSGFSLTNIRMSVSWIRQPPGKALEWLAHIFSNDEKSYSTSLKSRLTISRDTSKSQVVLTLTNVDPVDTATYYCARMRLPYGMDVWGQGTTVTVSSEPKSSDKTHTCPPCPAPEAAGGPSVFLFPPKPKDTLMISRTPEVTCVVVSVSHEDPEVKFNWYVDGVEVHNAKTKPREEQYNSTYRVVSVLTVLHQDWLNGKEYKCKVSNKALPAPIEKTISKAKGQPREPQVYTLPPSREEMTKNQVSLWCLVKGFYPSDIAVEWESNGQPENNYKTTPPVLDSDGSFFLYSKLTVDKSRWQQGNVFSCSVMHEALHNHYTQKSLSLSPGKGGSEGKSSGSGSESKSTGGSEIVLTQSPGTLSLSPGERATLSCRASQSISSSFLTWYQQKPGQAPRLLIYGASSRATGIPDRFSGGGSGTDFTLTISRLEPEDFAVYYCQHYGSSPMYTFGQGTKLEIKGGSEGKSSGSGSESKSTGGS[letters of about 100 residues not shown]DEGYSSGHYYGMDVWGQGTTVTVSS
notes: Trispecific IgG1 antibody (L234A, L235A, D265S); Heavy chain 1 = anti-CD3 (CD3B376) Fab heavy chain with hole and RF mutations; also called BGCB463.003; BGCB463.004
In experiment [3], B2 came in with an EC50 of 110 nM.
